# The list shows a part of the results.
# System: PfSIP2 AP2 domain 1 (GST-tagged)
# Test: gcPBM binding intensity (ln(normalized median fluorescence intensity)); higher = stronger DNA binding
# Outline: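 Each value is the highest Masliner-normalised natural-log median intensity across replicate spots of either orientation of a probe. The probes were primer-extended double-stranded 36-bp intergenic genomic sequences on an Agilent 4 × 180k array, alongside negative controls, exposed for 1 h to GST-tagged P. falciparum DNA-binding domains expressed in E. coli. Bound protein was picked up with Alexa488 anti-GST antibody and scanned at 488 nm.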
row,Sequence,gcPBM binding intensity (ln)
1,GAAAGAAAATATTAAGTGCATATTTTAATGATACAA [GTGCAC_site9712],8.21
2,ATAAAAATAAAAAAAACACACATACCTTATTTTTGT [CACACA_site5452],7.17
3,ATTTTCCATATATTTTGTACATATGTATATTTTCCC [XGTACX_site7795],7.03
4,AAATATAAATGGTAATACACATACACACACACATAC [XGTACX_negctrl_site459],7.49
5,AATCAAAATAAATTAACACACAATTTTAATATTGTT [CACACA_site10],6.82
6,TATAAAAAATTATGTTGTACGTAATATAAAATTTGT [XGTACX_site7122],7.32
7,ACCCTCATATTATAGACACACACAAAAAAAATAAAA [CACACA_site7941],7.51
8,AGAAATGAAATATACACACATACATATATACATATA [CACACA_site4033],7.21
9,TAAATACACCCTAGACGTACATAAAAATTTAGTATG [XGTACX_site2512],7.07
10,ATTAATAATGAGTTATGTACATACATATTTTAAGAT [XGTACX_site7543],7.16
11,ATATTTATATATATGTGTACATATAGAAACATAAAA [XGTACX_site4355],7.01
12,CTTCTTATTTTCTAATGTACGTACAAATCATTTATA [XGTACX_site2176],8
13,TAAACATACATATACACACACACACCCACACCCACA [CACACA_site492],7.23
14,AAAAACAAACTGTGCATGCACCAAAAAAAAAAAAAA,10.4
15,TGTCCTTATGGGCACACACACATATAAGAAATTTAA [CACACA_site3187],7.07
16,TTTTTTTTTTTAATTTGTACGAATCTTTTTATTTTA [XGTACX_site4516],6.72
17,TAAAAATAGTATACAACACACGAGGGAAAATAAAGT [CACACA_site3837],7.56
18,TATCGAGCACGGCGTGTGGAGTTACAAAGAGGAGAA [CACACA_negctrl_site40],6.99
19,GCCAATAAAGATGTGGTGCATTATATATATATATAT,10.6
20,AAATGTATAATATTTTCACACACAAGAAAAAAGAAA [CACACA_site9195],6.83
21,CGTATTTATATAATTACACACCATATTTTAATTATT [CACACA_site5960],7.12
22,ATTTATTTGTTTGTTTTTTTTACGATTTTTATTTTT [CACACA_negctrl_site1138],6.97
23,ATAAACAATTAACAAACATGCAAATTTTAAATGTGT [TGCATGCA_site919],6.86

row,Sequence,gcPBM binding intensity (ln)
1,TAATTTTTTTTTCTTGTACACACTATTTTATAATTT [CACACA_site4078],7.09
2,ATCTATGATATATACACACACATGTATAAATAAATA [CACACA_site7012],6.95
3,AATAGTATTCACAAAGTTTTATATAATAAATATAAA [GTGCAC_negctrl_site154],6.71
4,CTTTCATATGTTTTAACACACACGCATATATTATAT [CACACA_site8615],7.37
5,TTTTTTTTTTTGATTTGTACACAAAAAAAATATATG [XGTACX_site4547],7.18
6,TTTTTTTTTTTTTTTTGTACATATTTTTAAACTATA [XGTACX_site2897],6.99
7,TTTTTTTTTTGATGTTGTACATATATATTATATATA [XGTACX_site6377],7.17
8,AGATATATGGACGACTCACACATTTAAATTCATTCA [CACACA_site6047],7.08
9,CTAGCAAATACATACACACACACACCGATACAGATA [CACACA_site5853],7.18
10,ATATATACATATATTACACACTTCTTATTCTAAGAA [CACACA_site3022],6.91
11,TCCATAAAAATGGATACACACACATAATATATATAT [CACACA_site9207],8.38
12,TATAATATAAGGATCACACACAAACACCCATATATA [CACACA_site4468],7.07
13,CATACATACATACATACACACATACCTATATTTATA [CACACA_site6769],8.07
14,TTAATAACAAAATAAACACACATATATAAATACCCA [CACACA_site4960],6.94
15,TTGCCCATTTAATTAACACACAAATGTTTATATTCT [CACACA_site6488],7.17
16,TTTGAAATAAGCAAATGTACATTATTATTAAATATA [XGTACX_site6158],6.72
17,TTCACATACAGAAACACACACATATATATAAATTAA [CACACA_site3705],7.37
18,TGTATGATAACTATAGTGCATTTGGTAATTTTTCCA,8.37
19,TATTTCATGATACAATGTACATGTATATATGATACC [XGTACX_site5057],7.19
20,AATAATATATATTACACACGCATCGTTCATTTATTT [CACACA_site2391],7.11
21,AAATATAATATATGCACACATACATACAGATATATA [CACACA_site4235],7.09
22,ATAAATATAGGACACACACACATATTATATATATAT [CACACA_site5658],8.41
